Data reported in a compilation of properties of binary mixtures (doi:10.1007/s10953-020-00967-3).
The densities may have been worked out from excess volumes.

Experiment: xn = mol fraction of the nth substance listed
Details: 101 kPa

CCCC[n+]1ccn(C)c1.F[B-](F)(F)F + CN(C)C=O
mass density [kg/m3]
Details	293.15 K	298.15 K	303.15 K	308.15 K	313.15 K	318.15 K	323.15 K
x1 = 0.0817	996.5	993.6	989.5	985.3	981.4	–	–
x1 = 0.1602	1036.5	1033.1	–	1024.8	–	1016.5	1012.5
x1 = 0.2406	1067.2	1064.7	1060.6	1056.4	1052.3	1048.2	1044.1
x1 = 0.3472	1100.1	1097.2	–	–	1085.2	–	–
x1 = 0.4392	1122.3	1119.5	1115.6	–	1107.8	–	1100.1
x1 = 0.5598	1145.8	1142.8	–	1135.2	1131.5	–	1124.1
x1 = 0.6532	1160.9	1157.7	1154	1150.3	1146.7	1143	–
x1 = 0.7428	1173.4	1170.2	1166.5	1162.8	1159.3	1155.7	1152.3
x1 = 0.8382	1185.3	1181.9	1178.3	1174.7	1171.2	1167.6	1164.2
x1 = 0.9424	1196.8	1193.2	1189.6	1186.1	1182.6	1179.1	1175.6
x1 = 1	1202.8	1199.2	1195.6	1192	1188.5	1184.9	1181.4

CN(C)C=O + CCCC[n+]1ccn(C)c1.F[B-](F)(F)F
x2 = 0
Details	mass density [kg/m3]
293.15 K	948.5
298.15 K	943.7
303.15 K	938.9
308.15 K	934.1
313.15 K	929.3
318.15 K	924.5
323.15 K	919.7
